Experimental data as given in PubChem BioAssay AID463173 (ICCB-Longwood Screening Facility, Harvard Medical School, 2010).
Screen size: about 52,000 compounds; about 1,700 (3.3%) were called active. Cut-off read from the data, not from the text of the source: active = survival mostly below about 52% (no sharp cut-off); inactive = mostly above about 56%. The list shows a part of the results.

What follows are compounds tested on Wild type (assay: S. aureus survival, RN4220 and DeltatarO strains – OD600, teichoic acid synthesis inhibitors, primary screen (AID 463173)). Details: S. aureus RN4220 wild type/DeltatarO growth, OD600, 18 h, stronger effect = lower value, screened at 18.75 µg/mL (by protocol).

| SMILES | survival |
| --- | --- |
| O=C1CCc2cc(S(=O)(=O)NCc3ccc(F)cc3)cc3c2N1CC3 | inactive: 72% |
| CCc1cc2c(cc3c(=O)n(CC(=O)N4CCC(C)CC4)nc(CC)n32)s1 | inactive: 69% |
| CCCS(=O)(=O)c1ncc(Cl)c(C(=O)Nc2c(C(=O)c3ccccc3)oc3ccccc23)n1 | inactive: 120% |
| CCCCCn1c(NCc2ccccc2OC)nc2ccccc21 | active: -5% |
| Cn1nc(C(=O)N2CCN(c3cccc(Cl)c3)CC2)c2c1-c1ccccc1S(=O)(=O)C2 | inactive: 46% |
| O=C(Nc1ccccc1)Nc1nncs1 | inactive: 108% |
| CCS(=O)(=O)N1CCc2cc(C(=O)Nc3ccc(C)c(Cl)c3)ccc21 | inactive: 102% |
| CCCCOc1ccc(C(=O)NCC2(N3CCN(C)CC3)CCCCC2)cc1 | inactive: 87% |
| O=C(Nc1nnc(S(=O)(=O)N2CCOCC2)s1)c1cccc(F)c1 | inactive: 78% |
| CCc1ccc(-n2c(=O)c3ccc(C(=O)NCCc4ccccc4)cc3n(CC(N)=O)c2=O)cc1 | inactive: 81% |
| CC(=O)c1cccc(NC(=O)C(Cc2ccccc2)NS(=O)(=O)c2ccc(Br)s2)c1 (stereo not given) | inactive: 136% |
| O=C(Nc1ccc(Cl)cc1)N1CCC(CN2CCCC2)CC1 | inactive: 66% |
| Cc1ccc2c(c1)C(c1ccccc1)N(C(=O)c1ccc(OC(C)C)cc1)CC(=O)N2 (stereo not given) | inactive: 67% |
| Cc1cccc(CCNC(=O)Cn2ncc3c(=O)oc4ccccc4c32)c1 | inactive: 76% |
| Cc1c2cnn(-c3ccccc3)c(=O)c2c(C)n1CC(=O)NCc1ccccc1Br | inactive: 76% |
| CCOC(=O)C1CCN(c2nc(-c3ccc(Br)cc3)nc3ccccc23)CC1 | inactive: 75% |
| COc1ccc(OC)c(NC(=O)c2cn3c4c(ccc(Cl)c4c2=O)OC(C)C3)c1 (stereo not given) | inactive: 82% |
| COc1ccc(Cn2cc(C(=O)c3ccc(OC)cc3)c(=O)c3cc4c(cc32)OCCO4)cc1 | inactive: 91% |
| Cc1ccc(C)c(N2CCN(C(=O)CCCn3ncn4c(cc5occc54)c3=O)CC2)c1 | inactive: 85% |
| COc1ccc(C(=O)Nc2ccc(-c3cc4ccccc4oc3=O)c(C)c2)cc1Br | inactive: 117% |
| COc1cccc(CNC(=O)CCS(=O)(=O)c2cc3c(cc2C)NC(=O)CO3)c1 | inactive: 90% |
| CCc1ccc(-n2c(=O)c3c(C)c(C(=O)N(C)C)sc3n(Cc3cccc(C)c3)c2=O)cc1 | inactive: 80% |
| CCOc1ccc(CNC(=O)CCn2nc(C)c3c(C)n(-c4ccccc4)nc3c2=O)cc1 | inactive: 129% |

| SMILES | survival |
| --- | --- |
| CCN(CCCNC(=O)c1nn(-c2ccc(C)cc2)c(=O)c2c1c1ccccc1n2C)c1ccccc1 | inactive: 82% |
| CN(C)c1ccc(CNC(=O)CCCN2C(=O)CCn3nc(-c4cccn4C)cc32)cc1 | inactive: 69% |
| Oc1ccccc1-c1nc(/C=C/c2ccccc2Cl)no1 | inactive: 81% |
| Cc1ccccc1NC(=O)CCc1c(C)nn(-c2ccc(N3CCCCC3)nn2)c1C | inactive: 68% |
| Cc1ccc(-n2c(=O)c3c4c(sc3n(Cc3ccccc3F)c2=O)CCC4)cc1C | inactive: 116% |
| Cc1nc(-c2ccc(Cl)cc2)sc1CCNC(=O)c1ccco1 | inactive: 135% |
| COc1cc(-c2nc3sccn3c2Nc2cccc(C)c2)ccc1O | inactive: 60% |
| Cc1ccc(O)c(-c2ccnc3cc(-c4ccc(Cl)cc4)nn23)c1 | inactive: 81% |
| Cc1coc2cc3oc(=O)c(CC(=O)NCc4ccc(F)cc4)c(C)c3cc12 | inactive: 99% |
| COc1ccc(C(=O)Nc2ccc3nc(SCc4ccc(C)cc4)sc3c2)cc1 | inactive: 93% |
| Cc1ccc(Cn2c(=O)n(Cc3nc(-c4ccccc4)no3)c(=O)c3cc4c(cc32)OCO4)cc1 | inactive: 82% |
| COc1ccccc1OCCCn1c(C2CC(=O)N(c3ccccc3Cl)C2)nc2ccccc21 (stereo not given) | inactive: 93% |
| O=c1[nH]c2ccc(N=Cc3ccc(F)cc3)cc2[nH]1 | inactive: 103% |
| CC(=O)c1cccc(NC(=O)CCc2c(C)nc3c(-c4ccc(F)cc4)c(C)nn3c2C)c1 | inactive: 81% |
| CC1(C)CC(=O)C=C(Nc2ccccc2NC(=O)c2cnccn2)C1 | inactive: 102% |
| Cn1c(C(C(=O)NCC2CCCO2)N(C(=O)Cn2nnc3ccccc32)c2ccc3c(c2)OCO3)nc2ccccc21 (stereo not given) | inactive: 111% |
| O=C(Nc1ccccc1)N1CCN(C(=O)c2nsc3ccccc23)CC1 | inactive: 85% |
| C=CCSc1nc2ccccc2n1C(=O)c1ccc2c(c1)OCO2 | inactive: 97% |
| Cc1ccc(CCNC(=O)CCn2c(=O)c3cccn3c3ccc(F)cc32)cc1 | inactive: 64% |
| CCCc1nc2sc3c(N4CCCCC4)ncnc3c2c2c1CCCC2 | active: 13% |
| COc1ccc(OC)c(NC(=O)Cn2cc(S(=O)(=O)c3ccccc3)c(=O)c3cc(C)ccc32)c1 | inactive: 83% |
| COc1cccc(C2NC(=O)NC(C)=C2C(=O)Nc2ccccc2C)c1OC (stereo not given) | inactive: 107% |
| CN(C)Cn1c(O)c(N=NC(=O)c2ccccc2)c2ccccc21 | inactive: 106% |

| SMILES | survival |
| --- | --- |
| Cc1cc(=O)n2nc(N3CCC(C(=O)Nc4ccc(C(C)C)cc4)CC3)sc2n1 | inactive: 87% |
| CCNC(=O)CC1C(=O)N(c2ccccc2)C(=O)N1Cc1ccc(F)cc1 (stereo not given) | inactive: 79% |
| O=C(CCn1c(=O)c2cccn2c2ccc(F)cc21)NCc1ccccc1F | inactive: 75% |
| Cc1ccc(NC(=O)CSc2nc(-c3ccc(F)cc3)cc(C(F)(F)F)c2C#N)cc1 | inactive: 85% |
| CCSc1ncnc2c(-c3ccc(OC)cc3)nsc12 | inactive: 93% |
| Cc1cccc(NC(=O)Cn2c(=O)n(Cc3ccc(C(=O)NCc4ccc5c(c4)OCO5)cc3)c(=O)c3ccccc32)c1 | inactive: 129% |
| CCOc1ccc(C(=O)c2cn(CC(=O)Nc3cc(OC)cc(OC)c3)c3ccc(F)cc3c2=O)cc1 | inactive: 93% |
| Cc1ccccc1Cn1c(SCc2ccc(C(=O)NCc3cccs3)cc2)nc2ccncc21 | inactive: 139% |
| COc1ccc(S(=O)(=O)N(Cc2nc(-c3cccc(C)c3)no2)C2CCCCC2)cc1 | inactive: 83% |
| Cc1ccc2[nH]cc(NC(=O)N3CCCCC3)c(=O)c2c1 | inactive: 119% |
| Cc1cccc(OCc2nnc(SCC(=O)Nc3ccc(C)cc3C)o2)c1 | inactive: 129% |
| Cc1ccccc1Cn1c(CCCNC(=O)C2CCCCC2)nc2ccccc21 | inactive: 101% |
| O=C(N1CCC(O)(c2cccnc2)CC1)C12CC3CC(CC(C3)C1)C2 | inactive: 107% |
| Cc1nnc(N2CCC(C(=O)NC(C)C)CC2)c2nn(-c3ccc(Cl)cc3)c(C)c12 | inactive: 64% |
| CCCC(=O)Nc1cccc(-c2nc3ccccc3c(=O)o2)c1 | inactive: 94% |
| COc1ccccc1N1CCN(S(=O)(=O)c2ccc3c(c2)oc(=O)n3C)CC1 | inactive: 79% |
| CCCSCCCNC(=O)C1CCN(C(=O)c2cc3sccc3n2C)CC1 | inactive: 135% |
| O=S(=O)(c1ccc(-n2cnnn2)cc1)N1CCN(c2ccccc2F)CC1 | inactive: 98% |
| CCCCOc1ccc(C2c3c(-c4ccccc4O)n[nH]c3C(=O)N2Cc2ccncc2)cc1OC (stereo not given) | inactive: 55% |
| O=C(Nc1nc(-c2ccc(Br)cc2)ns1)c1ccc(F)cc1 | inactive: 70% |
| CCN(CCCNC(=O)c1cc2c(=O)[nH]c3ccccc3c2s1)c1ccccc1 | inactive: 86% |
| CCC1CCCCN1S(=O)(=O)c1ccc(NC(=O)c2cc(=O)c3ccccc3o2)cc1 (stereo not given) | inactive: 85% |
| N#Cc1ccc2ccn(CC(N)=O)c2c1 | inactive: 95% |

| SMILES | survival |
| --- | --- |
| CCOc1ccc(-n2c(C)nc3c(cnn3-c3ccc(C)cc3)c2=O)cc1 | inactive: 81% |
| CC(=O)c1cccc(NC(=O)Cn2c(SCC(=O)Nc3ccc(F)cc3)nc3ccccc32)c1 | active: -3% |
| CCCCn1nnnc1SCC(=O)c1cc(OC)ccc1OC | inactive: 129% |
| Cc1c2cnn(CC(=O)NCc3ccccc3)c(=O)c2c(C)n1Cc1cccc(Cl)c1 | inactive: 89% |
| Cc1ccc(C=N/C(=N\NC(=O)c2ccccc2)c2ccccc2)o1 | inactive: 119% |
| COCCCNC(=O)CSc1nc(-c2cccc(F)c2)[nH]c1-c1ccccc1 | inactive: 91% |
| O=C(CN1CCN(Cc2ccccc2Cl)C1=O)NCc1ccccc1Cl | inactive: 80% |
| CC(=O)Nc1cccc(NC(=O)Cn2c(-c3cccnc3)ccc(C#N)c2=O)c1 | inactive: 89% |
| COc1ccc(-c2c(C#N)c(SCC(=O)Nc3ccccc3C)nc(C)c2C(=O)Nc2ccccc2)cc1OC | inactive: 99% |
| COc1ccc(C(=O)SC2=NCCS2)cc1 | inactive: 117% |
| N#C/C(=C\c1ccc(Cl)cc1)C(=O)NCC1CCCO1 (stereo not given) | inactive: 67% |
| COc1ccc(CCN2C(=O)N(c3ccc(F)cc3)C(=O)C2CC(=O)Nc2ccccc2)cc1 (stereo not given) | inactive: 70% |
| CCOc1ccc(NC(=O)Cc2coc3ccc(C)cc23)cc1 | inactive: 142% |
| COc1ccc(-c2cc(C(F)F)n3ncc(C(=O)Nc4cc(OC)ccc4OC)c3n2)cc1 | inactive: 64% |
| CCc1cnc2c(c1SCC(=O)Nc1ccc(Cl)cc1)c(=O)n(C)c(=O)n2C | inactive: 128% |
| CNc1nc(-c2ccc3c(c2)CCN3S(=O)(=O)c2ccccc2)cs1 | inactive: 102% |
| CCC(Nc1ccc(-c2nc(-c3ccco3)no2)cc1[N+](=O)[O-])c1ccccc1 (stereo not given) | inactive: 95% |
| Cc1cccc(-c2nc(CCNC(=O)Cc3ccc(F)cc3)cs2)c1 | active: 14% |
| COc1ccccc1NC(=O)CSc1ccc(-c2sc(C)nc2C)nn1 | inactive: 81% |
| COc1cccc(CNCCSc2nnnn2C)c1OCc1ccc(Cl)cc1Cl | inactive: 79% |
| COc1ccccc1CNC(=O)Cn1c(=O)oc2cc(S(=O)(=O)N3CCC(C)CC3)ccc21 | inactive: 136% |
